The whole screen tested about 3,200 compounds, of which about 300 (9.4%) showed activity. The list shows a part of the results, in another mix than the full data.
System: A673/TR/shEF
Assay: cell viability (LOESS-normalised, relative to median of negative controls) (log2 ratio); higher = more viable cells (less compound effect), active = hit call of the paper (over 3 MAD below the median)
Conditions: treatment time: 72 h
How it was run: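 For three days, A673/TR/shEF Ewing sarcoma cells in 384-well plates (1,500 per well) were treated with library compounds at two or more concentrations or with DMSO controls, after doxycycline had been added or withheld 24 h beforehand to induce EWS-FLI1 shRNA knockdown. Viability was read by CellTiter-Glo luminescence on an Envision reader. The data were LOESS-corrected per plate, divided by the median of negative controls and log2-transformed.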

[1] = 0.25 µM, library screen: screen2, EWS-FLI1 expression: high (no doxycycline)
[2] = 0.25 µM, library screen: screen2, EWS-FLI1 expression: low (doxycycline-induced shRNA knockdown)
[3] = 2.5 µM, library screen: screen2, EWS-FLI1 expression: high (no doxycycline)
[4] = 2.5 µM, library screen: screen2, EWS-FLI1 expression: low (doxycycline-induced shRNA knockdown)
[5] = 0.103 µM, library screen: screen3, EWS-FLI1 expression: high (no doxycycline)
[6] = 0.103 µM, library screen: screen3, EWS-FLI1 expression: low (doxycycline-induced shRNA knockdown)
[7] = 0.308 µM, library screen: screen3, EWS-FLI1 expression: high (no doxycycline)
[8] = 0.308 µM, library screen: screen3, EWS-FLI1 expression: low (doxycycline-induced shRNA knockdown)
[9] = 0.926 µM, library screen: screen3, EWS-FLI1 expression: high (no doxycycline)
[10] = 0.926 µM, library screen: screen3, EWS-FLI1 expression: low (doxycycline-induced shRNA knockdown)
[11] = 2.8 µM, library screen: screen3, EWS-FLI1 expression: high (no doxycycline)
[12] = 2.8 µM, library screen: screen3, EWS-FLI1 expression: low (doxycycline-induced shRNA knockdown)
[13] = 8.3 µM, library screen: screen3, EWS-FLI1 expression: high (no doxycycline)
[14] = 8.3 µM, library screen: screen3, EWS-FLI1 expression: low (doxycycline-induced shRNA knockdown)
[15] = 25 µM, library screen: screen3, EWS-FLI1 expression: high (no doxycycline)
[16] = 25 µM, library screen: screen3, EWS-FLI1 expression: low (doxycycline-induced shRNA knockdown)
[17] = 0.25 µM, library screen: screen1, EWS-FLI1 expression: high (no doxycycline)
[18] = 0.25 µM, library screen: screen1, EWS-FLI1 expression: low (doxycycline-induced shRNA knockdown)
[19] = 2.5 µM, library screen: screen1, EWS-FLI1 expression: high (no doxycycline)
[20] = 2.5 µM, library screen: screen1, EWS-FLI1 expression: low (doxycycline-induced shRNA knockdown)

Measured: cell viability (log2)

COC(=O)c1c(-c2cc(OC)c(OC)c(OC)c2)c2ccc(OCc3ccccn3)cc2c(=O)n1-c1ccc(N)cc1
inactive: [1] 0.233 | [2] 0.109 | [3] 0.207 | [4] 0.0911

C/C(=C\C(=O)Nc1ccccc1C(=O)O)c1ccc2ccccc2c1
inactive: [5] 0.0459 | [6] 0.0279 | [7] -0.00745 | [8] -0.00325 | [9] -0.0219 | [10] 0.0436 | [11] 0.00499 | [12] -1.3e-05 | [13] -0.0171 | [14] 0.0177 | [15] 0.0665 | [16] 0.0416

COc1ccc2c(c1)c(CC(=O)N1CCOCC1)c(C)n2C(=O)c1ccc(Cl)cc1
inactive: [1] 0.124 | [2] 0.153 | [3] 0.201 | [4] 0.242

CNCCCC12CCC(c3ccccc31)c1ccccc12
inactive: [5] 0.0546 | [6] 0.106 | [17] 0.144 | [18] 0.0864 | [1] 0.1 | [2] 0.0687 | [7] 0.0846 | [8] 0.0083 | [9] 0.0561 | [10] 0.12 | [19] 0.0405 | [20] 0.185 | [3] 0.103 | [4] 0.0925 | [11] 0.103 | [12] 0.0781 | [13] -0.0418 | [14] 0.0968 | [15] -0.0907 | [16] 0.0881

COc1cccc(CN2CCN(Cc3cccc([N+](=O)[O-])c3)CC2)c1
inactive: [17] 0.0814 | [18] 0.112

CCCCCC(=O)O[C@]1(C(C)=O)CC[C@H]2[C@@H]3CCC4=CC(=O)CC[C@]4(C)[C@H]3CC[C@@]21C
inactive: [17] 0.129 | [18] -0.0108 | [19] 0.14 | [20] 0.121

Oc1cc2c(cc1O)CN(C(=S)NCCc1ccc(Cl)cc1)CCC2
inactive: [1] 0.163 | [2] 0.0221 | [3] 0.0522 | [4] 0.0425

Nc1nc(Cl)nc2c1ncn2[C@@H]1O[C@H](COP(=O)(O)OP(=O)(O)OP(=O)(O)O)[C@H](O)C1O (stereo not given in full)
inactive: [1] 0.146 | [2] 0.0571 | [3] 0.0213 | [4] 0.0355

CCCCCCCC/C=C\CCCCCCCC(=O)NCCO
inactive: [1] 0.126 | [2] 0.0596 | [3] 0.166 | [4] 0.108

CNCC[C@@H](Oc1ccc(C(F)(F)F)cc1)c1ccccc1
inactive: [1] 0.0975 | [2] 0.0761 | [3] 0.0807 | [4] 0.106

COc1ccc(C(=O)O)c(O)c1OC
inactive: [17] 0.0449 | [18] 0.066 | [19] 0.127 | [20] -0.0146

Cc1cc(C)cc(OCC2CNC(=O)O2)c1 (stereo not given)
inactive: [17] 0.0439 | [18] 0.0798 | [19] 0.0712 | [20] -0.0117

C[C@]12C=CC(=O)C=C1CC[C@H]1[C@@H]3C[C@@H](O)[C@](O)(C(=O)CO)[C@@]3(C)C[C@H](O)[C@@]12F
inactive: [5] 0.102 | [6] 0.0482 | [17] 0.0174 | [18] -0.0301 | [1] 0.00413 | [2] 0.089 | [7] 0.13 | [8] 0.0928 | [9] 0.0937 | [10] 0.0919 | [19] 0.162 | [20] -0.0256 | [3] 0.208 | [4] 0.18 | [11] 0.119 | [12] -0.0445 | [13] 0.145 | [14] 0.095 | [15] 0.145 | [16] 0.173

CC1(C)O[C@@H]2C[C@H]3[C@@H]4CCC5=CC(=O)CC[C@]5(C)[C@@]4(F)[C@@H](O)C[C@]3(C)[C@]2(C(=O)CCl)O1
inactive: [17] 0.0561 | [18] -0.0391 | [19] 0.0522 | [20] -0.14

CC(C)Oc1ccc2c(=O)cc(-c3ccccc3)oc2c1
inactive: [17] 0.0261 | [18] 0.0825 | [19] 0.241 | [20] 0.291

CC(=O)O[C@@H]1CC2C(C)(C)C=CC(=O)[C@]2(C)C2CC[C@@]3(C)[C@H](c4ccoc4)OC(=O)C4OC43[C@@]21C (stereo not given in full)
inactive: [17] 0.059 | [18] 0.0804 | [19] 0.118 | [20] 0.149

CCOC(=O)c1c(C)cc(O)c(C=O)c1O
inactive: [17] 0.0533 | [18] 0.0573 | [19] 0.128 | [20] -0.00093

Cn1ccnc1
inactive: [1] 0.126 | [2] 0.118 | [3] 0.0701 | [4] 0.0866

CCN(CC)CCOC(=O)c1ccc(N)cc1
inactive: [17] 0.112 | [18] 0.096 | [1] 0.0816 | [2] 0.0902 | [19] 0.138 | [20] 0.177 | [3] 0.0857 | [4] 0.112

CC[C@H](C)C(=O)O[C@H]1C[C@@H](C)C=C2C=C[C@H](C)[C@H](CC[C@@H]3C[C@@H](O)CC(=O)O3)[C@H]21
inactive: [17] 0.0174 | [18] -0.0358 | [19] 0.109 | [20] 0.0431

CN=C(N)NCCCC(N)C(=O)O (stereo not given)
inactive: [17] 0.0723 | [18] 0.0246 | [19] -0.0207 | [20] -0.0108

COc1cccc(-c2cc(=O)c3cc(OC)ccc3o2)c1
inactive: [17] 0.0549 | [18] 0.00406 | [19] 0.217 | [20] 0.137

O=c1[nH]c2cc(C(F)(F)F)ccc2n1-c1cc(C(F)(F)F)ccc1O
inactive: [1] 0.103 | [2] 0.119 | [3] 0.0481 | [4] 0.0523

COc1cc(OC)c2c(c1)O[C@H](c1cc(OC)c(OC)c(OC)c1)[C@H](OC(=O)c1cc(OC)c(OC)c(OC)c1)C2
inactive: [17] 0.0414 | [18] 0.0159 | [19] 0.0705 | [20] -0.00627

N[C@@H](CCCC(=O)O)C(=O)O
inactive: [1] 0.162 | [2] 0.0926 | [3] 0.123 | [4] 0.112

O=c1cc(-c2ccccc2)oc2cc(O)c(O)c(O)c12
inactive: [17] 0.0871 | [18] 0.0339 | [19] 0.114 | [20] 0.0862

CC(=O)N[C@@H](CS)C(=O)O
inactive: [5] 0.0817 | [6] 0.0266 | [17] 0.0841 | [18] 0.112 | [1] -0.0515 | [2] 0.129 | [7] 0.066 | [8] -0.0031 | [9] 0.076 | [10] 0.0628 | [19] 0.237 | [20] 0.191 | [3] 0.12 | [4] 0.106 | [11] 0.0679 | [12] 0.0909 | [13] 0.0493 | [14] 0.0506 | [15] 0.11 | [16] 0.106

O=c1cc(-c2ccccc2)[nH]c2nc(Cl)ccc12
inactive: [1] 0.217 | [2] 0.163 | [3] 0.125 | [4] 0.151

COCCN1C(=O)/C(=C\c2ccc(-c3ccc(Br)cc3)o2)SC1=S
inactive: [17] 0.0753 | [18] 0.00476 | [19] 0.101 | [20] 0.0615

O=c1[nH]c(=O)c2nc3ccccc3nc2[nH]1
inactive: [1] 0.162 | [2] 0.112 | [3] 0.0736 | [4] 0.114

CC(=O)O[C@H]1C[C@@]2(C)[C@@H](C[C@@H](O)[C@H]3[C@@]4(C)CC[C@@H](O)[C@@H](C)[C@@H]4CC[C@@]32C)/C1=C(\CCC=C(C)C)C(=O)O
inactive: [17] 0.122 | [18] 0.0295 | [19] 0.146 | [20] 0.0181

COCc1nc2c([nH]1)c(=O)n(C)c(=O)n2CC(C)C
inactive: [1] 0.153 | [2] 0.158 | [3] 0.128 | [4] 0.164

NC(=O)OCC(COC(N)=O)c1ccccc1
inactive: [1] 0.14 | [2] 0.139 | [3] 0.151 | [4] 0.0729

C[C@H]1NC(=O)NC1=O
inactive: [17] 0.0544 | [18] 0.0103 | [19] 0.0268 | [20] 0.0311

Cc1ccnc(NS(=O)(=O)c2ccc(N)cc2)n1
inactive: [17] 0.0856 | [18] 0.0669 | [19] 0.0686 | [20] 0.126

OCCN(C(=S)Nc1ccc2nccnc2c1)c1ccccc1
inactive: [17] 0.0686 | [18] 0.0667 | [19] 0.0818 | [20] 0.102

Nc1ccc(S(=O)(=O)Nc2cnc3ccccc3n2)cc1
inactive: [17] 0.0806 | [18] 0.0245 | [19] 0.121 | [20] 0.0149

NCCCC(O)(P(=O)(O)O)P(=O)(O)O
inactive: [5] 0.131 | [6] 0.0188 | [7] 0.106 | [8] 0.113 | [9] 0.142 | [10] 0.0555 | [11] 0.03 | [12] 0.118 | [13] 0.0655 | [14] 0.0777 | [15] 0.0916 | [16] 0.151

COC(=O)N[C@H](C(=O)N[C@@H](Cc1ccccc1)[C@@H](O)CN(Cc1ccc(-c2ccccn2)cc1)NC(=O)[C@@H](NC(=O)OC)C(C)(C)C)C(C)(C)C
inactive: [5] -0.0462 | [6] 0.0593 | [7] -0.00424 | [8] 0.00689 | [9] 0.0398 | [10] 0.0145 | [11] 0.025 | [12] -0.0449 | [13] 0.0194 | [14] 0.0559 | [15] -0.0289 | [16] 0.0555
